# Assay results: PubChem BioAssay AID1345083 (National Center for Advancing Translational Sciences (NCATS), 2018)
# “And” between values parts separate entries of the source, which are not always exact repeats. Equal values may be shown once. The campaign covered roughly 94,000 compounds. About 6,200 (6.6%) were called active. Inconclusive means that the source gave no clear call. Such entries were picked first, then a sample of the others. The call rests on the fitted dose curve; in most records, active means well fitted inhibition curve with a large enough effect; inconclusive means small, poorly fitted or top-dose-only effect; inactive means flat fitted curve, though single readings scatter. Potencies of inconclusive entries are doubtful fits and often do not repeat.
# Assay: Cytotoxic Profiling in HEK 293 Cell Line of Diverse Libraries Using Quantitative High-Throughput Screening; further: nearly all actives have a fitted effect of over 60% in size
# Conditions: HEK 293 viability, ATP luminescence (CellTiter-Glo), 48-72 h; series mostly up to 115 µM
# Outline: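 qHTS cytotoxicity; HEK 293, 250 cells/well; compound pinned; 48 or 72 hr, 37 degree Celsius, 5% CO2, 95% humidity; CellTiter-Glo, 10 min RT; luminescence (ATP).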
# Potency means the concentration at half of the fitted maximal effect; tags describe the fitted curve by direction and shape.
row,Structure (SMILES),Potency
1,CCOC(=O)C1CCN(C(=O)c2cc(-c3ccsc3)nc3c2cnn3C)CC1,"inconclusive: 79.4 µM [inhibitor, partial curve, poor fit]"
2,CCN1CCCC1CNC(=O)CCC1CCN(Cc2cn(CC)c3ccccc23)CC1 (stereo not drawn),"inconclusive: 22.4 µM [inhibitor, full curve, poor fit]"
3,COc1ccc(-c2cc(N3CCC(NC(=O)c4cccc(Br)c4)C3)n[nH]2)cc1 (stereo not drawn),"inconclusive: 44.7 µM [inhibitor, partial curve, poor fit]"
4,COc1ccc(NC(=O)c2cc(-c3ccccc3C(F)(F)F)nc3c2cnn3C)cc1OC,active: 31.6 µM
5,O=C(Cc1ccccc1)N1CCC(Oc2cccc(F)c2)C1 (stereo not drawn),"inconclusive: 50.1 µM [inhibitor, partial curve, poor fit]"
6,Cc1cc(=O)n(CC(=O)Nc2ccc(C)c(C)c2)c(N(C)Cc2ccccc2)n1,"inconclusive: 56.2 µM [inhibitor, partial curve, poor fit]"
7,O=C(O)C[C@@H]1CCN(C(=O)C2CCCCC2)C[C@@H]1CCN1CCN(c2ccccc2)CC1,inactive
8,COCCNC(=O)c1ccc2c(c1)N=C(C)c1cc(C)ccc1S2,"inconclusive: 2.82 µM [inhibitor, full curve, poor fit]"
9,O=C(NC[C@H]1OC[C@@H](NCc2ccccc2O)[C@@H]1O)Nc1ccccc1,inactive
10,O=C(NCCc1ccc(Cl)cc1)C1CCc2nnc(-c3ccc(Cl)cc3Cl)n21 (stereo not drawn),"inconclusive: 50.1 µM [inhibitor, partial curve, poor fit]"
11,O=C(NCC(F)F)C1CCCN(Cc2cccc(-c3ccc(F)cc3F)c2)C1 (stereo not drawn),"inconclusive: 50.1 µM [inhibitor, partial curve, poor fit]"
12,COc1ccc(Cl)cc1NC(=O)CCC1CCCN(Cc2ccc(C)s2)C1 (stereo not drawn),"inconclusive: 50.1 µM [inhibitor, partial curve, poor fit]"
13,CC(C)OCCCNC(=O)C1CCCN1Cc1ccc(-c2cncnc2)cc1 (stereo not drawn),inactive
14,CCN(CC)C(=O)[C@@H]1C[C@H](NC(=O)c2ccc[nH]2)CN1Cc1ccncc1,inactive
15,Cc1cc(C)c(CNC(=O)c2cc(-c3ccnn3C)cc3c2OCCN3C(C)C)c(=O)[nH]1,"inconclusive: 112 µM [inhibitor, single point]"
16,COc1ccc(Nc2ccnc(N3CCN(C(=O)Cc4cccc(Cl)c4)CC3)n2)cc1,"inconclusive: 22.4 µM [inhibitor, full curve, poor fit]"
17,COc1ccc(C(=O)Nc2nc3c(s2)C[C@@H]2[C@](C)(CO)[C@H](O)CC[C@@]2(C)[C@@H]3CC(=O)N(C)Cc2ccccc2)cc1,"inconclusive: 50.1 µM [inhibitor, partial curve, poor fit]"
18,CC(=O)Nc1cccc(-c2cc3c(ccn3C)c(C(=O)NCc3cccnc3)n2)c1,"inconclusive: 100 µM [inhibitor, partial curve, poor fit]"
19,Cn1ncc2c(C(=O)NCc3ccc4c(c3)OCO4)cc(-c3ccccc3)nc21,"inconclusive: 79.4 µM [inhibitor, partial curve, poor fit]"
20,CC(C)c1ccccc1NC(=O)Cn1ccn2nc3c(c2c1=O)CCCCC3,active: 39.8 µM
21,CC(=O)N1c2ccccc2CC1c1nc(C(C)C)no1 (stereo not drawn),inactive

row,Structure (SMILES),Potency
1,O=C(c1ccoc1)N1CCCC(c2noc(COc3ccccc3F)n2)C1 (stereo not drawn),"inconclusive: 89.1 µM [inhibitor, single point]"
2,O=C(CN1C(=O)CNC1=O)NCCc1noc(C2CCCC2)n1,inactive
3,C=CCNC(=O)[C@@H]1Cc2cn(Cc3cc(C)on3)c3cccc(c23)[C@H](CC(C)C)N1,active: 70.8 µM
4,COc1ccc(-c2cc(C(=O)NCC(C)C)c3c(C4CCCN4)nn(C)c3n2)cc1 (stereo not drawn),"inconclusive: 44.7 µM [inhibitor, partial curve, poor fit]"
5,CN1CC(=O)N(C2CCCCC2)Cc2c(NCCCO)ncnc21,inactive
6,CCN(CC)CC(C)NC(C)C (stereo not drawn),inactive
7,CCOC(=O)[C@H]1C[C@]2(CCCCN(CCOC)C2=O)N(C(=O)C2CCCC2)[C@H]1c1ccco1,"inconclusive: 89.1 µM [inhibitor, single point]"
8,COc1ccccc1NC(=O)Cn1c(C)cc2nc3n(c(=O)c21)CCCCC3,inactive
9,COCCNC(=O)c1cn2ccnc(-c3ccc(OC)cc3)c2n1,inactive
10,COc1cc(OC)cc(-c2onc(C)c2C(=O)NCc2cccc(C)c2)c1,"inconclusive: 89.1 µM [inhibitor, single point]"
11,O=C(Cc1ccc(F)cc1)NCCNC(=O)c1cccc(-c2ccc(C(F)(F)F)cc2)c1,active: 28.2 µM
12,Cc1ccc(NC(=O)NCCc2ncc(C)n2CC2CC2)cc1C,"inconclusive: 56.2 µM [inhibitor, partial curve, poor fit]"
13,O=C(NCC(F)(F)F)C1CCCN(Cc2cccc(-c3cccs3)c2)C1 (stereo not drawn),"inconclusive: 89.1 µM [inhibitor, partial curve, poor fit]"
14,O=C(c1ccccc1Cl)N1CCC(C(=O)N2CCC(N3Cc4ccccc4C3=O)CC2)CC1,"inconclusive: 89.1 µM [inhibitor, single point] and inconclusive: 89.1 µM [inhibitor, partial curve, poor fit]"
15,CC(C)[C@@H]1CN(C(=O)c2ncn[nH]2)C[C@H]1NS(=O)(=O)N(C)C,inactive
16,C=CCNC(=O)C[C@@H]1CCN(C(=O)Nc2cccc(C(=O)OCC)c2)C[C@@H]1CC,inactive
17,Cc1nn(-c2ccccc2)c2c1C(C1CC1)N(C1CCCN(C(=O)c3ccccc3F)C1)C2=O (stereo not drawn),"inconclusive: 50.1 µM [inhibitor, partial curve, poor fit]"
18,O=C(NC1CCN(c2ccnc3ccnn23)C1)C1CCCC1 (stereo not drawn),"inconclusive: 89.1 µM [inhibitor, partial curve]"
19,Cc1noc(C)c1-c1cc2cc(C(C)C)oc2c(-c2ccc(CO)cc2)n1,"inconclusive: 50.1 µM [inhibitor, partial curve, poor fit]"
20,O=C(Cn1cnc2sccc2c1=O)NC1CCCc2c1[nH]c1ccccc21 (stereo not drawn),"inconclusive: 28.2 µM [inhibitor, full curve]"
21,N#Cc1ccc(S(=O)(=O)N2CC(C(=O)NC3CCCCC3)C3(CCOCC3)C2)cc1 (stereo not drawn),inactive

row,Structure (SMILES),Potency
1,CC(C)=CC(=O)N1CC[C@H](NC(=O)NC(C)C)[C@H]1C(=O)N[C@H](Cc1c[nH]c2ccccc12)C(N)=O,inactive
2,O=C(c1ccc(C(F)(F)F)cc1)N1CCC2(CC1)CC(=O)N(c1ccccc1)c1ccccc1O2,"inconclusive: 50.1 µM [inhibitor, partial curve, poor fit]"
3,CCOc1ccc(NC(=O)Cn2c(N3CCC(C)CC3)nc(C)cc2=O)cc1,"inconclusive: 39.8 µM [inhibitor, partial curve, poor fit]"
4,Cc1cc2cc(-c3c(C)noc3C)nc(N3CCN(c4ccccn4)CC3)c2o1,active: 12.6 µM
5,COc1cccc(N2C(=O)OCC23CCN(CCCc2ccccc2)C3)c1 (stereo not drawn),"inconclusive: 112 µM [inhibitor, single point]"
6,N#Cc1cccc(C(=O)N2CCCCCCNC(=O)[C@@H]3C[C@@H](c4nc(Cc5ccccc5)no4)C[C@@H]32)c1,"inconclusive: 89.1 µM [inhibitor, single point]"
7,O=C1COc2ccc(-c3ccsc3)nc2CN1,inactive
8,NC1CCCCN(Cc2cc(-c3ccccc3OC(F)(F)F)no2)C1 (stereo not drawn),"inconclusive: 39.8 µM [inhibitor, full curve, poor fit]"
9,O=C(c1ccc(C(F)(F)F)cc1)N1CCC(N2CCCOC2=O)CC1,inactive
10,COCC1CN(C)CC12CCN(Cc1cc(Br)ccc1F)CC2 (stereo not drawn),"inconclusive: 50.1 µM [inhibitor, partial curve, poor fit]"
11,COc1ccccc1CN1CC[C@@H]2OCC(=O)N(C(C)C)[C@H]2CC1,"inconclusive: 100 µM [inhibitor, partial curve, poor fit]"
12,C1CNC(c2nc(CCOCC3CC3)no2)C1 (stereo not drawn),inactive
13,O=C(Cc1c[nH]c2ncc(-c3ccccc3)cc12)N1CCN(c2ccccn2)CC1,"inconclusive: 100 µM [inhibitor, partial curve, poor fit]"
14,CC1(C)C(=O)N(Cc2ccccc2)[C@H]2CN(c3ccnc(N4CCOCC4)c3)C[C@@H]2[S+]1(=O)[O-],"inconclusive: 50.1 µM [inhibitor, partial curve, poor fit]"
15,COc1ccc(C(=O)N2[C@@H]3CC[C@H]2CC(NC(=O)c2cnc(C)cn2)C3)cc1F (stereo partly drawn),"inconclusive: 100 µM [inhibitor, single point]"
16,Cn1cc2c3c(cccc31)CN(C(=O)Cc1ccccc1F)CC2,"inconclusive: 56.2 µM [inhibitor, partial curve, poor fit]"
17,O=C(Cc1cccc(Cl)c1)N1CCCC(c2nn(-c3ccc(F)cc3)c(=O)[nH]2)C1 (stereo not drawn),"inconclusive: 89.1 µM [inhibitor, single point]"
18,Cc1nnc2ccc(N3CCN(C(=O)NC(C)C)CC3)nn12,inactive
19,Cc1ccc(NC(=O)c2nc3sccn3c2-c2ccc(F)cc2)cc1,"inconclusive: 50.1 µM [inhibitor, partial curve, poor fit]"
20,O=C(CNC(=O)c1cccc(-c2ccc(C(F)(F)F)cc2)c1)NCC(F)(F)F,"inconclusive: 44.7 µM [inhibitor, partial curve, poor fit]"
21,COc1ccc(CN2C[C@@H](CO)[C@H](NC(=O)C3CC3)C2)cc1,inactive
